# Measurements taken from ChEMBL document CHEMBL4888484, “Replenishing the malaria drug discovery pipeline: Screening and hit evaluation of the MMV Hit Generation Library 1 (HGL1) against asexual blood stage Plasmodium falciparum ,using a nano luciferase reporter read-out” (2022).
# About 540 (0.36%) of roughly 150,000 compounds showed an effect of 50% or more. Some of the results follow.
# Test system: Plasmodium falciparum
# Assay: Primary screen in NF54 nanoGlo assay, in single point, at 2uM, 72h; a lower Z score goes with more inhibition
# Format: functional, Erythrocyte
# Details: timepoint 72 hour
Compound,% Inhibition [%],Z score
CC(=O)NC1CCC(Nc2cnn(CCC(C)C)c2C)CC1 (stereo not given),-6,0.63
Cc1ccc2[nH]cc(CCC(=O)N3CCc4ccccc4[C@@H]3C(=O)O)c2c1,-1,0.17
COc1cccc(Cn2cccc(N)c2=O)n1,-9,1.36
COc1cccc2ncnc(N3CCC[C@H](n4cc(CO)nn4)C3)c12,-5,0.48
CCOc1cc([C@@H]2c3c(-c4cc(C)cc(C)c4O)n[nH]c3C(=O)N2Cc2ccc(F)cc2)ccc1O,-5,0.61
Cc1cc(F)ccc1CC(=O)N1CCC[C@H](c2ccn(CC(=O)O)n2)C1,-10,1.51
CCNCc1c(Cl)cccc1Cl,-8,0.92
Cc1cc(-c2nnn(CC[C@H]3CCCC3=O)n2)ccc1F,-8,0.85
CC1CN(C(=O)c2cnc3[nH]c(=O)[nH]c3c2)CC1(C)CO (stereo not given),-1,0.12
COCCOCCCC(=O)N(CC1CC1C)C(C)C (stereo not given),-18,2.34
Cc1nc(N2C[C@H]3CCC[C@@H](C3)C2)c2ccccc2n1,-9,1.54
CCS(=O)(=O)NCCc1ccc(S(=O)(=O)Nc2ccc(C(C)(C)C)nn2)s1,-1,0.12
CCC1(CC)CCC(NC(=O)[C@@H]2CCCCC(=O)N2)CC1,35,-5.02
Cc1cccc(NC(=O)Cn2cc(S(=O)(=O)N3CCCCCC3)ccc2=O)c1C,-9,1.77
C[C@H]1CC(=O)Nc2ccccc2N1C(=O)c1ccc(S(=O)(=O)N2CCOCC2)cc1,-15,1.27
O=C(CC(c1ccccc1)c1ccccc1)N1CCc2ccccc21,4,-0.52
Cc1nc(C2(NS(=O)(=O)c3c(C)noc3C)CCC2)no1,-13,1.64
NC(=NOCC(=O)Nc1ccc2c(c1)OCCCO2)c1cccs1,-9,0.86
COc1c(NC(=O)C2=C(C)Oc3ccccc3C2)c(C)nn1C,2,-0.17
CCC(=O)Nc1ccc(-c2ccc(OC)nc2)c(C)n1,1,-0.1
Cc1ccc(Oc2ncccc2CNC(=O)CCn2cncn2)c(F)c1F,8,-0.91
O=C1[C@H]2CN(c3ncnc4nc[nH]c34)C[C@H]2C(=O)N1Cc1ccccc1,-7,1.21
Cc1ccc(Br)c(C(=O)NCCCO[C@H]2CCOC2)c1,10,-1.55
Cc1cccc(CNCc2cc(NS(C)(=O)=O)cc(C(=O)Nc3ccccc3)c2)c1,18,-3.39
COc1cc2c(cc1CN1CCCC[C@H](N(C)C)C1)OCCCO2,-1,0.12
CCOc1ccccc1CNC(=O)C1CCN(c2ncnc3c2oc2ccccc23)CC1,-10,1.17
c1nc(C2CCC2)cc(N2CCOCC2)n1,3,-0.31
CCOC(=O)CC1(N(C)C(=O)CNC(=O)OC)CCCCC1,-4,0.52

Compound,% Inhibition [%],Z score
C[C@@H](CNC(=O)CC1CCNCC1)c1ccc(F)cc1F,-7,0.7
Cc1ccc(OCC(=O)NCCC2CCN(C(=O)Nc3ccc(F)cc3)CC2)cc1,2,-0.25
CN1CCC(NC2(c3ccc(Br)cc3)CC2)CC1,-5,0.94
Cc1oc(C)c(C(=O)N(C)C2(C#N)CCC2)c1Br,-15,1.56
CN(CCC(=O)NCc1ccc(F)cc1)CC1CCCC1,-8,1.31
O=C(c1ccc2cc[nH]c2c1)N1CC(Nc2ncccn2)C1,-16,1.86
COC[C@]1(C(=O)NCCc2cccc3cccnc23)CCOC1,-12,1.53
COc1ccc(CN2C[C@H]3CN(Cc4nccs4)CCN3C2=O)cc1,17,-1.97
N#CC1(c2ccc3c(c2)OCO3)CCCCCC1,-8,0.76
NC(=O)C1CCCCC1Nc1ccc2nccnc2n1 (stereo not given),-11,1.3
CCc1nnc(NCCc2nc(-c3cccnc3)n[nH]2)o1,-9,1.15
Cn1cc(C(=O)N2CCC[C@H](n3cccn3)C2)c(-c2ccncc2)n1,-1,0.2
COc1ccc(OC)c([C@@H](O)CNc2ccncc2Cl)c1,-9,1.18
COCC(C)(C)N1CCN(Cc2ccsc2C(=O)O)CC1,5,-0.68
COc1cc(CNC2CCCC2)cc(Cl)c1OCc1ccc(C)cc1,-8,1
CCc1cc(C(=O)Nc2ccc(F)cc2C)nc2ccnn12,0,0.06
Cc1cc(C(=O)N2CCC3(CC2)CC(=O)N(CC(C)C)C3)nc(C)n1,-22,2.31
C=CCC[C@H](O)CN1CC(C)(C)OC(C)(C)C1,-13,1.21
Brc1cnc2[nH]c(CN3CCCCC3)nc2c1,-4,0.79
COC(=O)c1ccc(Cl)c(Cc2noc(C(=O)NC[C@@H]3CCCN4CCCCC34)n2)c1 (stereo not given in full),-9,1.21
Cc1ccc(C)c(CNc2cc(C(=O)N(C)Cc3nccs3)cc(S(=O)(=O)N(C)C)c2)c1,-7,0.8
Cc1nn(C)c(C)c1CC(=O)Nc1ccc(N(C)C)nc1,-5,0.89
Cc1ccc(OCC(=O)N2C[C@@H](CN3CCCCCC3)[C@@H](CO)C2)cc1C,-8,1.31
COc1ccc(/C=C(\C(=O)N(C)Cc2ccccc2)n2ccccc2=O)cc1,-31,3.64
Cc1cc(C)n(-c2ccc(NC(=O)c3oc4c(c3C)C(=O)CC(C)(C)C4)cc2F)n1,-19,2.5
CO[C@@H](CS(=O)(=O)Nc1cncc(N2CCCC2)n1)c1ccc(F)cc1,-11,1.5
Cc1ccccc1CN1CCN2C(=O)N(C3CCCCC3)C[C@H]2C1,-3,0.33
